# Measured values: PubChem BioAssay AID488969 (Vanderbilt High Throughput Screening Facility, 2010)
# In all, about 110,000 compounds were measured (“z-score”: median about -0.1, highest 2% from about 2 on). The list shows a part of the results. Active and inactive are the calls of the source.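 The calls were made as follows: active = z-score in the third read window above 3 or below -3; inactive = the rest.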
# Biological target: Metabotropic glutamate receptor 8 (Rattus norvegicus) (UniProt P70579)
# Chain of UniProt P70579 (P70579 whole entry, looked up): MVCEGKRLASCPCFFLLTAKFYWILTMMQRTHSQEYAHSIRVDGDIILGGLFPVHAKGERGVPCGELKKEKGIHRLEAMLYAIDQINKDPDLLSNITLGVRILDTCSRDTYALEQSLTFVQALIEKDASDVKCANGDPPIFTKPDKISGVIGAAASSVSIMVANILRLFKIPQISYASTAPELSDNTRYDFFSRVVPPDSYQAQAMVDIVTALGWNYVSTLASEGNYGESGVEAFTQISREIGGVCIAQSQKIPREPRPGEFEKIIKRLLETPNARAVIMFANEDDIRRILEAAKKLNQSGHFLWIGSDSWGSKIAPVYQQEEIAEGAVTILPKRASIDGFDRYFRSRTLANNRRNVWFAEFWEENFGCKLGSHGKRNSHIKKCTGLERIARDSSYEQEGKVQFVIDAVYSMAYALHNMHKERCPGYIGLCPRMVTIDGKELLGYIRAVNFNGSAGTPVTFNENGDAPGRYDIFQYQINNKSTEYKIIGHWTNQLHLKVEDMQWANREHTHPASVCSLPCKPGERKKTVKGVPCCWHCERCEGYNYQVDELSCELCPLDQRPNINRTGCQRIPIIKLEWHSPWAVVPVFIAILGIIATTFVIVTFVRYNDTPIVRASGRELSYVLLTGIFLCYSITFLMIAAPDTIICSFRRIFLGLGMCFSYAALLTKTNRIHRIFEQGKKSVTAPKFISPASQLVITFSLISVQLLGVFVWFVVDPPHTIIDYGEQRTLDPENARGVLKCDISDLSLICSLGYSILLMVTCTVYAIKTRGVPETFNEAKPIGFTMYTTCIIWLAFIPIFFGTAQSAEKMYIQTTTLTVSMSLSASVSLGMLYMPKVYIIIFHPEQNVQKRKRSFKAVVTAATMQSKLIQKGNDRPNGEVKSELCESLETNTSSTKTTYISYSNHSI
# Assay: mGluR8 Gi/Go-coupled signaling modulation – cell-based, rat, thallium flux, HTS, primary screen (AID 488969)
# Settings: HEK293 rat mGluR8, GIRK (G protein-gated inwardly rectifying potassium channel) thallium flux, FluoZin2; at 10 µM; stronger effect = higher value; submaximal glutamate (EC20) added with thallium
row,Compound,z-score
1,CCc1ccc(CC)c(S(=O)(=O)Nc2ccc(C(=O)O)c(O)c2)c1,0.159
2,CSCCCNC(=S)N1CCN(S(=O)(=O)c2cccc(C(F)(F)F)c2)CC1,-0.0575
3,COc1ccc2c(c1)CCc1c(C(=O)N3CCc4ccccc4C3)noc1-2,-1.69
4,CCC(=O)c1ccc(OCC(=O)O)cc1,0.544
5,O=C(NCCO)C(=O)NCC1OCCCN1S(=O)(=O)c1cccs1 (stereo not given),0.171
6,CCOc1ccc(NS(=O)(=O)c2ccc3[nH]cc(C(=O)NCC4CCCO4)c(=O)c3c2)cc1 (stereo not given),0.22
7,CCCCc1ccc(NC=C2C(=O)OC3(CCCCC3)OC2=O)cc1,0.169
8,O=C(Oc1ccc(Br)cc1C(=S)N1CCCC1)c1ccccc1Cl,-0.0754
9,COc1ccc(OC)c(NC(=O)CSc2nnc(C)n2Cc2ccccc2)c1,-0.0689
10,Cc1ccc(C(=O)c2ccc(N3CCOCC3)c(F)c2)cc1,1.22
11,CCN(c1ccc2c(c1)OCO2)S(=O)(=O)c1cc(Br)cc2c1N(C(C)=O)CC2,-0.362
12,O=C1NC2(CCCCC2)C(=O)N1Cc1ccc([N+](=O)[O-])cc1,-0.131
13,COC(=O)Cn1c(=NC(=O)c2ccc(Cl)s2)sc2cc(C)ccc21,0.116
14,Cc1occc1C(=O)n1nnc2ccccc21,-0.524
15,O=C(NCCC1=CCCCC1)C(=O)NCC(c1ccco1)N1CCN(c2ccccc2)CC1 (stereo not given),-0.375
16,Cc1ccc(/C=N/N2C(=O)c3ccccc3NC2c2ccc(C)cc2)cc1 (stereo not given),-0.203
17,CCOC(=O)c1c(NC(=O)C(=O)N/N=C/c2ccc(O)c(OC)c2)sc2c1CCCCC2,-0.156
18,COc1ccc(-n2c(C)c(C(C)=O)c(C(C)=O)c2C)cc1,0.311
19,OC1CCCN(Cc2c3ccccc3cc3ccccc23)C1 (stereo not given),1.32
20,O=C(CCc1nc2ccccc2[nH]c1=O)OCC(=O)N1CCc2ccccc21,-0.85
21,COc1ccc(-c2nn(-c3ccccc3)cc2/C=N/N2C(=O)CSC2=S)cc1,-0.461
22,O=C(O)CC(CC(=O)Nc1nncs1)c1ccccc1 (stereo not given),-0.273

row,Compound,z-score
1,O=C(COc1ccc2ccccc2c1)Nc1cccc2cccnc12,-0.233
2,O=S(=O)(Nc1nc2ccccc2s1)c1ccc(Cl)s1,-0.467
3,CCCCCCc1cc2cc(C(=O)NC)c(=N)oc2cc1O,active: 11.6
4,N=c1n(CCOc2ccccc2)c2ccccc2n1CCN1CCOCC1,0.873
5,CCCCNC(=O)CS(=O)Cc1nc(-c2cccs2)oc1C (stereo not given),0.176
6,CCOC(=O)N=S(=O)(Oc1ccc([N+](=O)[O-])cc1)c1ccccc1 (stereo not given),-0.891
7,COc1cccc(N2C(=O)C(c3ccccc3)=C(c3nc4ccccc4s3)C2NC(C)=O)c1 (stereo not given),-0.254
8,CCN(CC)S(=O)(=O)c1ccc2oc(SCC(=O)NCc3ccccc3)nc2c1,0.0882
9,CN1/C(=C\C(=O)c2cccnc2)C(C)(C)c2ccccc21,-0.282
10,CC1C2C(C)N(C)C(=O)N(C)C2N(C)C(=O)N1C (stereo not given),0.288
11,CCNC(=O)C(=O)NCCc1ccc(Cl)cc1,-0.338
12,CC(NC(=O)Cc1cccs1)c1ccncc1 (stereo not given),-0.357
13,Cc1nnc2n1N=CC=C(C(C)(C)C)S2,0.419
14,COc1ccc(NC(=O)N(Cc2cccnc2)Cc2ccccc2Cl)c(OC)c1,-0.361
15,COc1ccc(C/C(=N\O)c2ccc(OC)cc2)cc1,-0.363
16,COC(=O)c1c(NC(=O)COC(=O)[C@@H](NS(=O)(=O)c2ccc(C)cc2)C(C)C)sc2c1CCC2,2.02
17,CC(C)(C)C(=O)Nc1nnc(-c2ccncc2)o1,0.403
18,O=c1c2c3c(sc2ncn1/N=C/c1ccccc1)CCCC3,0.196
19,CCC(CC)C(=O)Nc1ccc(Nc2ccccc2)cc1,-0.165
20,O=C1CC(SCc2nc3ccccc3[nH]2)C(=O)N1c1cccc(Cl)c1 (stereo not given),-0.364
21,COc1ccccc1S(=O)Cc1ccc(C(=O)NCc2ccccc2Cl)o1 (stereo not given),-0.228
22,c1ccc(-c2cn3cccnc3n2)cc1,0.000248

row,Compound,z-score
1,Nc1nc(SCC(=O)NCc2ccccc2)[nH]c(=O)c1NC(=O)c1ccccc1F,-0.457
2,Cc1cc(F)ccc1S(=O)(=O)Nc1ccccc1C(=O)Nc1ccccc1N1CCOCC1,-0.0929
3,COc1ccc(-c2cn(/N=C/c3ccc(Cl)cc3Cl)c(N)n2)cc1,1.93
4,Cc1cc(NC(=O)c2ccc(NC(=O)C(C)C)cc2)no1,-0.036
5,CCOC(=O)c1ccc(NCc2ccncc2)cc1,-0.215
6,CC(C)Oc1ccc(NC(=O)Oc2ccccc2)cc1,0.0452
7,CC1CN(CC(O)COC(c2ccccc2)c2ccccc2)CC(C)O1 (stereo not given),0.833
8,O=C(O)CCCCCN1C(=O)CSC1=S,0.0586
9,COCCNC(=O)C(=O)c1cc(C)n(-c2ccc([N+](=O)[O-])cc2)c1C,0.62
10,Cc1ncsc1CCOC(=O)c1ccc([N+](=O)[O-])cc1,-0.138
11,O=C(c1ccc(COc2ccccc2Cl)o1)N1N=C(C(F)F)CC1(O)C(F)F (stereo not given),-0.204
12,NC(=O)c1nc(C2CCCCC2)nc2c1[nH]c(=O)n2-c1ccc(F)cc1,0.235
13,Cc1cc(C)cc(N2C(=O)C3NN=C(C(=O)OCc4ccccc4)C3C2=O)c1 (stereo not given),-0.131
14,O=C(CNS(=O)(=O)c1ccccc1)NCc1ccccn1,0.407
15,Cc1ccc(S(=O)(=O)Cc2ccc(C(=O)O)o2)cc1,-0.0931
16,O=C1C2C(C(=O)N1CC1CCCO1)C1C=CC2C12CC2 (stereo not given),0.614
17,c1ccc(COc2ccc(Oc3nc(N4CCCCC4)nc(N4CCOCC4)n3)nn2)cc1,-1.28
18,COc1ccc(CNC(=O)CS(=O)Cc2nc(-c3ccccc3C)oc2C)cc1 (stereo not given),-0.364
19,COc1ccc(C(=O)Nc2n[nH]c(-c3ccncc3)n2)cc1,1.08
20,CC(C)(C)c1ccc(-c2nnc(SCCC#N)n2C2CCCC2)cc1,-0.226
21,CC(NC(=O)CSc1nc(=O)cc(N)n1CCc1ccccc1)c1ccccc1 (stereo not given),0.0738
22,Clc1ccc2c(NNc3ccccc3Cl)ccnc2c1,-0.353

row,Compound,z-score
1,CS(C)(=O)=NS(=O)(=O)c1ccc(Cl)cc1,-0.15
2,CC(=O)Nc1ccc(S(=O)(=O)n2nc(C)cc2C)cc1,0.47
3,Cc1ccc(C2C3=C(CC(C)(C)CC3=O)NC3=C2C(=O)CC(C)(C)C3)o1,-0.194
4,O=C1CC(NNc2ccccc2)C(=O)N1c1ccccc1 (stereo not given),-0.363
5,Cc1ccc2c(c1)c(C)cc(=O)n2CCC(=O)O,0.379
6,CCN(CC)C(=O)c1ccc(COc2ccccc2Cl)cc1,-0.28
7,O=C(Nc1nc2c(s1)CCCC2)c1cc(-c2ccc3c(c2)OCO3)nc2ccccc12,0.0309
8,COc1ccccc1N1CCN(C(=O)c2ccc(N3CCCC3=O)cc2)CC1,-2.25
9,COc1ccc(NC(=O)c2cccs2)c([N+](=O)[O-])c1,-0.262
10,CCOc1ccc(NC(=O)C2CC(=O)N(C(C)C)C2)cc1 (stereo not given),-0.136
11,N#C/C(=C\c1cccc([N+](=O)[O-])c1)C(=O)NCc1cccnc1,-0.658
12,N#Cc1c(NC(=O)CSc2n[nH]c(Cc3ccccc3)n2)oc(-c2ccccc2)c1-c1ccccc1,-0.98
13,CCn1c(CCCOc2ccc(Cl)cc2Cl)nnc1SCC(=O)Nc1cc(F)ccc1C,0.256
14,COc1ccc(Cl)cc1NC(=O)Nn1cnnc1,0.046
15,CC(C(=O)Nc1nccs1)N1C(=O)C2CC=CCC2C1=O (stereo not given),-0.237
16,CN(C)S(=O)(=O)c1cc([N+](=O)[O-])ccc1N1CCCCCC1,-0.497
17,CCOC(=O)c1sc(NC(=O)CSc2nc(-c3ccco3)cc(C(F)(F)F)n2)c(C(=O)OC(C)C)c1C,-0.257
18,CN(C)S(=O)(=O)c1cccc(-c2nn(-c3ccccc3)cc2/C=C2\SC(=S)NC2=O)c1,-0.225
19,O=C(Cn1cnc2ccccc2c1=O)c1ccc2ccccc2c1,0.873
20,Cc1nc(SCC(=O)c2cc3ccccc3oc2=O)c(C#N)c(C)c1C(=O)Nc1ccccc1,-0.21
21,O=C(CSc1nc(N2CCCCC2)nc(N2CCCCC2)n1)Nc1nccs1,-0.0454
22,Cc1ccc(C2CC(c3ccccc3)=NN2C(=O)CSc2nnc(-c3ccc(Cl)cc3)o2)o1 (stereo not given),0.544

row,Compound,z-score
1,Clc1ccc(CN2CCC(c3nc4ccc(Cl)cc4[nH]3)CC2)cc1,1.42
2,Cn1c(=O)[nH]c(=O)c2c1nc(Br)n2CCOc1ccccc1,0.099
3,N#C/C(=C/c1ccc(Sc2nc3ccccc3[nH]2)o1)c1cccc(F)c1,-0.345
4,CC1CCCC(NC(=S)Nc2ccc(SC(F)F)cc2)C1C (stereo not given),active: 4.36
5,COc1ccc(N(CC(=O)NCCSC2CCCCC2)S(C)(=O)=O)c(OC)c1,0.06
6,COCCCn1c(=O)/c(=C\c2ccccc2OC(F)F)s/c1=C(/C#N)C(=O)NC(C)C,-0.195
7,O=C(NC1CCCCC1)c1ccc(S(=O)(=O)N2CCCCC2)cc1,0.145
8,COC(=O)c1ccccc1N/C=C1\CCc2c(c(C)nn2-c2ccccn2)C1=O,-0.171
9,CC(C)CCNc1nc(-c2ccco2)c2c(c1C#N)CCCC2,-0.366
10,O=C(CC(=O)NC1CCCCC1)N/N=C/c1ccc(Cl)cc1,-0.256
11,CCOC(=O)N1CCN(C(=O)CCSCCc2ccncc2)CC1,1.49
12,CCOC(=O)c1c(NC(=O)CSc2nnc(-c3cccnc3)o2)sc(C)c1C,-0.348
13,Oc1c(Cl)cc(Cl)cc1C=Nc1ccc(Br)cc1,-0.479
14,COc1cc(/C=C2/C(=O)c3cccc([N+](=O)[O-])c3C2=O)c(Br)cc1O,-0.984
15,Cc1cc(C)n2nc(C(=O)NCc3ccccc3)cc2n1,0.128
16,COc1cc(C2C(C#N)=C(N)Oc3cc(O)ccc32)cc(OC)c1OC (stereo not given),0.00968
17,COc1cc2c(cc1NC(=O)c1cccc([N+](=O)[O-])c1)oc1ccccc12,0.178
18,CC(C)(C)NCC(O)COc1ccccc1C(=O)CCc1ccccc1 (stereo not given),1.13
19,CCOC(=O)CSc1nc(NC#N)nc(N(CC)CC)n1,-1.36
20,O=C(Nc1cccnc1)c1cc2nc(C3CC3)cc(C(F)(F)F)n2n1,-0.178
21,COc1ccc(CC(=O)Nc2ccc(-c3cn4ccccc4n3)cc2)cc1,-0.938
22,O=C(c1cccc(F)c1)N1CCN(C(=O)c2cc(-c3ccc(Cl)cc3Cl)on2)CC1,active: 3.48
